Experimental data from PMC4336329 (PLoS ONE, 2015).
About 2,200 (0.71%) of roughly 310,000 compounds showed an effect of 50% or more. The effect is printed as a negative number. The list shows a part of the results.

What follows are compounds tested against human ether-à-go-go-related gene (hERG) potassium channel (human, UniProt Q12809) (assay: primary screen, population patch clamp on CHO cells stably expressing hERG).
human ether-à-go-go-related gene (hERG) potassium channel, sequence (Q12809 whole entry, looked up): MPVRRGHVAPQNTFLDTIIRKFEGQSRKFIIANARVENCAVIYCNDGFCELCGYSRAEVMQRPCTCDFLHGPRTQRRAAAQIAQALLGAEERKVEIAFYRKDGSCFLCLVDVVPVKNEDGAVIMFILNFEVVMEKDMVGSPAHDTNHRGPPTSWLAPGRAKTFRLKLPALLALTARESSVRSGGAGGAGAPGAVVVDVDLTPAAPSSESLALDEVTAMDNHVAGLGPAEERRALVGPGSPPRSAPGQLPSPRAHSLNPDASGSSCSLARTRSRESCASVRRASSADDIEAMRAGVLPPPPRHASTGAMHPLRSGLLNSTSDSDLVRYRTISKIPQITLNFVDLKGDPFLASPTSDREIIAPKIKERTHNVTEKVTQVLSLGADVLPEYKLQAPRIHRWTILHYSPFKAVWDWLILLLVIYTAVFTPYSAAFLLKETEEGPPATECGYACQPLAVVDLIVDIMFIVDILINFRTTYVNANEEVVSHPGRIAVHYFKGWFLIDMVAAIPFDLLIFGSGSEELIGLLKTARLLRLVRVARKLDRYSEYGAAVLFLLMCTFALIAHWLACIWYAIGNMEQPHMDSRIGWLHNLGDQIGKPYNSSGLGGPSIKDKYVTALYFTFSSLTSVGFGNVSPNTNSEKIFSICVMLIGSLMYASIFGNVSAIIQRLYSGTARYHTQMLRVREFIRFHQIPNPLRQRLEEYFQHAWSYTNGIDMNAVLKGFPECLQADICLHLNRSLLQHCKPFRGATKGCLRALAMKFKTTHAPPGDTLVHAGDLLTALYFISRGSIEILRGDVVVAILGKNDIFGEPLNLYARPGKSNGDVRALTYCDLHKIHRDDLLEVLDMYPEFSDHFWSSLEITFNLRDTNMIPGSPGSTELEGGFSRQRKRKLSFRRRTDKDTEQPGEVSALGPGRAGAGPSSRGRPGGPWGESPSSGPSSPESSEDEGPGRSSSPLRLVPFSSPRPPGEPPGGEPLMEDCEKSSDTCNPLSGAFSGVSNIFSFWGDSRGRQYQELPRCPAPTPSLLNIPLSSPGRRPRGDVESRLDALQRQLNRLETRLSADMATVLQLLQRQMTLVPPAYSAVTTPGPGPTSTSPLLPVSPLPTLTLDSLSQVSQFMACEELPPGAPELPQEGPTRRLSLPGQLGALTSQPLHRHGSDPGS

| SMILES | hERG current change (%, negative = inhibition) at 1uM |
| --- | --- |
| Nc1cccc(S(=O)(=O)c2ccc(N)c(N)c2)c1 | 11.1% |
| O=C(c1cc(-c2cccs2)on1)N1CCc2ccccc2C1 | 2.06% |
| Clc1c(-c2nnc3n2CCCCC3)sc2ccccc12 | -2.64% |
| Cc1nnc(SC(C)C(=O)Nc2ccc(S(=O)(=O)NC3CCCCC3)cc2)s1 (centres unmarked) | 5.66% |
| O=C(c1nnc(Cc2ccc(Cl)cc2)o1)N1CCc2ccccc2C1 | 10.3% |
| Cc1occc1C(=O)NNC(=O)c1ccc(Br)o1 | 16.5% |
| CCNC(=O)NC(=O)C(C)On1nnc2ccc(S(=O)(=O)N(CC)CC)cc21 (centres unmarked) | 11.5% |
| COc1ccccc1-c1ocnc1C(=O)N1CCN(S(=O)(=O)c2ccc(NC(C)=O)cc2)CC1 | 9.96% |
| CC(C)[C@H](NC(=O)OCc1ccccc1)C(=O)OCC(=O)NC1(C#N)CCCC1 | 9.89% |
| Cc1cccc(C(C(=O)NC2CCCC2)N(C(=O)c2csnn2)C2CC2)c1 (centres unmarked) | -12.7% |
| CCOC(=O)c1[nH]c2ccc(OC)cc2c1NC(=S)N1CCN(c2ccccn2)CC1 | -4.86% |
| Cc1ccc2cc(C3C(C#N)=C(N)Oc4c3ccc3cccnc43)c(=O)[nH]c2c1 (centres unmarked) | -8.42% |
| Cc1ccc(S(=O)(=O)CC(=O)c2ccc(C)c([N+](=O)[O-])c2)cc1 | 8.42% |
| COc1ccc(O)c(/C=N/Nc2nc3ccccc3[nH]2)c1 | 3.48% |
| CCOC(=O)c1c(C)[nH]c(C)c1C(=O)CN1C(=O)NC2(CCC(C)CC2)C1=O (centres unmarked) | 11.3% |
| COc1ccccc1NC(=O)CCC(=O)N1CC(C)Oc2ccc(C)cc21 (centres unmarked) | 11.2% |
| CS(=O)(=O)c1ccc(C(=O)NCC(c2ccco2)N2CCCCC2)cc1 (centres unmarked) | 12.8% |
| CC(C)OC(=O)CSc1nnnn1-c1ccc2c(c1)OCCO2 | 13.1% |
| O=C(N/N=C/c1cccc(OCc2ccccc2)c1)c1cccs1 | 0.137% |
| O=C(NCC(=O)N(c1ccccc1)C(C(=O)NC1CCCCC1)c1cccnc1)c1ccco1 (centres unmarked) | 13.4% |
| O=C(c1cnc2n(c1=O)CCS2)N1CCN(C(c2ccccc2)c2ccc(Cl)cc2)CC1 (centres unmarked) | 0.872% |
| c1ccc(CN2CCN(c3nc(-c4ccccc4)nc(-n4ccnc4)n3)CC2)cc1 | 8.62% |
| Cn1c(=O)[nH]c(=O)c2c1nc(SCCCO)n2CCCc1ccccc1 | 3.8% |
